About 4,300 (8.3%) of roughly 52,000 compounds were called active. Cut-off read from the data, not from the text of the source: active = survival mostly below about 52% (no sharp cut-off); inactive = mostly above about 56%. This is one part of the list.

The assay concerns DeltatarO mutant. The experiment in a line: growth inhibition of S. aureus wild type versus tarO mutant, primary screen, teichoic acid synthesis inhibitors, RN4220, OD600 (AID 463173). The settings on record: OD600, 18 h, active compounds read low; concentration not given here unless noted.
Take `CCN(CC)C(=O)c1ccc(NC(=O)CCn2nc(-c3ccc(C)cc3)c3ccccc3c2=O)cc1`: the survival is inactive: 61%. Next, `Cc1cc(OCC(=O)N2CCN(CCc3ccccn3)CC2)cc(C)c1Cl`: inactive: 55%.

As to `OCCCCNC1CCCCC1`, the survival was inactive: 76%.

As for `CCOC(=O)C1=C(C)OC(N)=C(C#N)C12C(=O)N1c3c(cccc32)C(C)CC1(C)C` (centres undefined), the survival was inactive: 51%. On to `CCOc1ccc(CN(CCc2ccc3c(c2)OCO3)Cc2cccc(C)c2)cc1`, for which the survival is inactive: 45%.

In the case of `CCN(CC)C(=O)c1ccc(NC(=O)CCn2nc(-c3ccc(Cl)cc3)c3ccccc3c2=O)cc1`, the survival was active: 47%. For `Cc1cccc(C2CC(=O)Oc3c2c(=O)oc2ccccc32)c1` (centres undefined), the survival is inactive: 136%.

For `COC(=O)c1ccc(NC(=O)c2cccn(Cc3ccccc3C)c2=O)cc1`, the survival was inactive: 81%. As to `CC(C)C(=O)c1cn(Cc2ccccc2C#N)c2ccccc12`, the survival is inactive: 79%. Under `O=C1NC(=S)NC(=O)C1C1CCCCC1` stands inactive: 74%; under `Cc1ccc(OCC(=O)Nc2ccc(Cl)cc2C(=O)c2ccccc2)cc1`, inactive: 67%. Next, `O=S1(=O)N(Cc2ccccc2)CCCN1Cc1ccc(F)cc1Cl`: inactive: 87%; `O=C(Nc1ccc(Br)cc1C(=O)c1ccccc1)c1ccccc1`: active: -1%; `CCN(CC)Cc1c[nH]c2ccccc12`: inactive: 90%. `CCOC(=O)c1ccc(NC(=O)c2sc3nc4c(cc3c2N)N2CCC4CC2)cc1`: the survival is inactive: 68%. Under `CC1CC2(O)c3no[n+]([O-])c3CCC2N1O` (centres undefined) stands inactive: 85%; under `C1CNC2NCCNC2N1` (centres undefined), inactive: 68%; under `Cc1cc(C)cc(OCC(=O)Nc2ccc(Cl)cc2C(=O)c2ccccc2)c1`, inactive: 82%. As to `COc1ccc(OCC(=O)N2CCN(Cc3cccc(OC)c3OC)CC2)cc1`, the survival is inactive: 180%.

On to `CCCCCn1c(=O)c(C(=O)Nc2ccccc2S(N)(=O)=O)c(O)c2ccccc21`, for which the survival is active: 0%. On to `Nc1nonc1C1=NOC(c2nonc2N)=NO1`, for which the survival was inactive: 100%.

As for `Cc1n[nH]c(C)c1CCN`, the survival was inactive: 80%. On to `O=C1NC(=O)C(CCc2ccncc2)(CCc2ccncc2)C(=O)N1C1CCCCC1`, for which the survival is inactive: 78%. For `CCOc1ccc(CN(CCc2ccc3c(c2)OCO3)Cc2cc(OC)ccc2O)cc1`, the survival is inactive: 62%. Under `Cc1cc(OCC(=O)N2CCN(CCc3ccncc3)CC2)ccc1Cl` stands inactive: 49%; under `Cc1ccc(NC(=O)N(Cc2ccc3c(c2)OCO3)C2CCN(Cc3ccccc3)CC2)cc1C`, active: 17%; under `COc1ccc(-n2c(/C=C\c3ccccc3F)nc3ccccc3c2=O)c(OC)c1`, inactive: 89%. Under `N#Cc1cc2c(nc1SCC(=O)Nc1ccc(C(F)(F)F)cc1)C1CCN2CC1` stands active: 8%; under `CCN1CCN(Cc2ccccc2C#N)CC1`, inactive: 85%; under `CC(C)c1ccc(OCC(=O)N2CCN(CCc3ccncc3)CC2)cc1`, active: 44%. For the compound `COc1ccc(OC)c(C(c2c(O)c3ccccc3oc2=O)c2c(C)n(C)n(-c3ccccc3)c2=O)c1` (centres undefined), the survival is inactive: 56%.

For the compound `CCc1cccc(NC(=O)CN2C(=O)CN=C(c3ccccc3F)c3cc(Cl)ccc32)c1`, the survival was inactive: 94%. Under `O=c1c2ccccc2nc(-c2ccco2)n1-c1ccc(Cl)cc1` stands inactive: 76%. As to `Cc1ccc2c(c1)C1CN(C)CCC1N2` (centres undefined), the survival is inactive: 81%.

Take `CCCCn1c(C)c(C(=O)OCC)c2cc(OC)ccc21`: the survival was inactive: 107%.

For the compound `O=C1CCCN1C(=O)c1cc(Cl)cc(Cl)c1`, the survival is inactive: 101%.

As to `OC1CCNC2CCCCC12` (centres undefined), the survival is inactive: 94%. Regarding `Cc1nc2ccccc2c(=O)n1-c1cccc(O)c1`, the survival was inactive: 96%.

As to `Cc1cccc(-n2c(/C=C/c3c[nH]c4ccccc34)nc3ccccc3c2=O)c1`, the survival was active: 26%. `Cc1cccnc1-n1c(C)nc2ccccc2c1=O`: the survival was inactive: 76%. As for `CSc1ccc(CN2CCN(C(=O)COc3cccc(C)c3)CC2)cc1`, the survival was inactive: 84%. Next, `CN(C)c1ccc(/C=C2/C(=O)C3CCN2CC3)cc1`: inactive: 95%. Under `COc1ccc(-c2nc(CN3C(=O)CN=C(c4ccccc4)c4ccccc43)c(C)o2)cc1` stands inactive: 84%; under `COc1ccc(C=C2C(=O)N(C)C(=O)N(C)C2=O)cc1`, inactive: 103%. In the case of `CC(C)C(=O)N1N=C(c2cccnc2)CC1(O)C(F)(F)F` (centres undefined), the survival is inactive: 66%. For the compound `CCOC(=O)C1C2NC(=S)NC1(C)Oc1ccccc12` (centres undefined), the survival is inactive: 69%. As for `COc1ccc(NC(C)=O)cc1NC(=O)c1cccn(Cc2ccccc2)c1=O`, the survival is inactive: 72%. As to `N#Cc1cccc(NC(=O)CSc2nc3c(cc2C#N)N2CCC3CC2)c1`, the survival was inactive: 88%. As to `Cc1nnc(NC(=O)c2cccn(Cc3cccc([N+](=O)[O-])c3)c2=O)s1`, the survival is inactive: 62%. As to `CC1(C)C(C(=O)Nc2cc(Cl)ccn2)C1(C)C`, the survival is inactive: 84%.

For the compound `O=c1c2ccccc2nc(-c2ccccc2)n1-c1ccccn1`, the survival was inactive: 85%. Next, `O=c1cccc2n1CC1CC2CN(c2nc(Cl)nc(Cl)n2)C1` (centres undefined): inactive: 80%; `CCOc1ccccc1CN(CCc1ccc2c(c1)OCO2)Cc1ccc(CC)cc1`: inactive: 111%. With `CC(C)(C)c1ccc(OCC(=O)Nc2ccc(Cl)cc2C(=O)c2ccccc2)cc1`, the survival is inactive: 70%. In the case of `Cc1ccccc1-n1c(/C=C/c2ccc(O)cc2)nc2ccccc2c1=O`, the survival is active: 35%. Next, `Cc1ccc(Cn2cccc(C(=O)Nc3nnc(C)s3)c2=O)cc1`: inactive: 75%; `CCN(CC)C(=O)c1ccc(NC(=O)Cn2nc(-c3ccc(C)cc3)c3ccccc3c2=O)cc1`: inactive: 50%; `c1cc2c(cc1CN1CCNCC1)OCO2`: inactive: 98%. Next, `CCOC(=O)c1ccc(NC(=O)c2cccn(Cc3ccc(C)cc3)c2=O)cc1`: inactive: 77%. Next, `COc1ccc(CC2C(=O)N(C)C(=O)N(C)C2=O)cc1`: inactive: 75%. In the case of `CCOC(=O)C1=C(C)NC(C)=C2C(=O)Oc3ccccc3C12` (centres undefined), the survival was inactive: 62%. Next, `N#Cc1cc2c(nc1SCC(=O)Nc1ccc(F)c(Cl)c1)C1CCN2CC1`: active: -2%; `c1cc(CN2CCNCC2)ccn1`: inactive: 105%; `O=C1CC(c2ccc(F)cc2)c2c(c3ccccc3oc2=O)O1` (centres undefined): inactive: 82%. Under `COc1ccc(CCNCc2ccc3c(c2)n(C)c(=O)n3C)cc1` stands inactive: 87%; under `O=C(Nc1ccc(Br)cc1C(=O)c1ccccc1Cl)c1ccccc1F`, inactive: 52%. Next, `CCOc1ccc(NC(=O)c2cccn(Cc3cccc(Cl)c3)c2=O)cc1`: inactive: 67%; `CN1C(=O)C(Cc2nc3ccccc3c(=O)n2-c2ccccc2)c2ccccc21` (centres undefined): inactive: 85%; `CCOC(=O)CC1=C(C(=O)OCC)C2(C(=O)N(C)c3ccccc32)C(C#N)=C(N)O1` (centres undefined): active: 0%.

In the case of `CC(c1ccccc1F)n1cc(C(=O)NC2CCCC2)nn1` (centres undefined), the survival is inactive: 88%. `Cc1oc(-c2ccccc2Cl)nc1CN1C(=O)CN=C(c2ccccc2)c2cc(Cl)ccc21`: the survival is inactive: 77%. Take `CCCOc1ccc(CCN)cc1Cl`: the survival was inactive: 74%.

`COc1ccc(NC(=O)CCc2nc(C3=CCN(Cc4cccc(Cl)c4)CC3)no2)cc1OC`: the survival was inactive: 67%. Next, `Clc1ccc(NCCN2CCCCCC2)nn1`: inactive: 86%; `O=c1c2ccccc2nc(/C=C/c2ccccc2O)n1-c1ccc(Br)cc1`: active: 41%; `c1ccc2c(CCNC3CCNCC3)c[nH]c2c1`: inactive: 75%. Under `CCCC12CN3CC(C)(CN(C1)C3c1ccccn1)C2=O` (centres undefined) stands inactive: 84%. Under `Cc1cc(N)n(C2CCN(C)CC2)n1` stands inactive: 94%; under `COc1ccccc1NC(=O)N(Cc1ccc2c(c1)OCO2)C1CCN(Cc2ccccc2)CC1`, inactive: 88%; under `Cc1c(Cl)cccc1NC(=O)CN1C(=O)C(C)N=C(c2ccccc2)c2ccccc21` (centres undefined), inactive: 71%. Take `COc1cc(C(c2c(O)c3ccccc3oc2=O)c2c(C)n(C)n(-c3ccccc3)c2=O)ccc1OCC(=O)O` (centres undefined): the survival was inactive: 82%. Under `N#CC(C#N)=Cc1cc(Br)cs1` stands inactive: 95%; under `O=C(Nc1ccc(Cl)cc1C(=O)c1ccccc1)c1ccccc1Br`, active: 24%. Next, `Nc1c(C(=O)Nc2ccc(Br)cc2F)sc2nc3c(cc12)N1CCC3CC1`: inactive: 132%; `O=C(CN1CCCC1=O)NCCc1ccccc1`: inactive: 82%; `Nc1c(C(=O)Nc2ccc(Cl)cc2)sc2nc3c(cc12)N1CCC3CC1`: inactive: 55%. Under `Cn1cc(/C=C/c2nc3ccccc3c(=O)n2-c2ccccc2)c2ccccc21` stands inactive: 77%; under `O=C(Nc1ccc2c(c1)OCO2)c1cccn(Cc2cccc(F)c2)c1=O`, inactive: 84%; under `O=C(c1ccc2ccccc2c1)C12CN3CN(CN(C3)C1)C2`, inactive: 101%. On to `COc1cc(C(c2c(O)c3ccccc3oc2=O)c2c(C)n(C)n(-c3ccccc3)c2=O)ccc1O` (centres undefined), for which the survival was inactive: 53%. With `CN1CCN(c2oc(-c3ccc(COc4ccccc4)o3)nc2C#N)CC1`, the survival was active: 41%. In the case of `Cc1nnc(NC(=O)c2cccn(Cc3cccc(Cl)c3)c2=O)s1`, the survival was inactive: 78%. On to `O=c1c2ccccc2nc(/C=C/c2ccccc2)n1-c1ccccc1F`, for which the survival is inactive: 69%. Next, `COc1ccc(CN2C(=O)CC(=O)NC2=S)cc1`: inactive: 80%.

In the case of `Cc1cccc(CSc2nc3c(cc2C#N)CN(C)CC3)c1`, the survival was inactive: 101%. Regarding `COc1cccc(/C=C/c2nc3ccccc3c(=O)n2-c2ccc(Cl)cc2)c1OC`, the survival was inactive: 88%. For `c1cc(C2CCNCC2)ccn1`, the survival was inactive: 86%.

As to `N#CC(C#N)=Cc1ccc(N2CCCC2)cc1`, the survival is inactive: 67%. Under `CCCC12CN3CC(CCC)(CN(C1)C3c1ccccn1)C2=O` (centres undefined) stands inactive: 84%; under `COc1ccc(C)cc1NC(=O)c1cccn(Cc2cccc([N+](=O)[O-])c2)c1=O`, inactive: 86%; under `C=CCN1C(=O)CN=C(c2cccs2)c2c1sc1c2CCC1`, inactive: 92%. On to `Cc1ccc(-n2c(/C=C/c3cccs3)nc3ccccc3c2=O)cc1C`, for which the survival was inactive: 80%. With `CN1CCN(C2CC3(C)C(CCC4C3CCC3(C)C(O)C(N5CCN(C)CC5)CC43)CC2O)CC1` (centres undefined), the survival was inactive: 76%.

As to `CCOc1ccc2nc(NC(=O)c3cccn(Cc4ccccc4)c3=O)sc2c1`, the survival was inactive: 94%.

`CN1CCc2nc3sc4c(=O)[nH]c(=O)[nH]c4c3cc2C1`: the survival was inactive: 79%.

For the compound `CSc1ccc(CN2CCN(C(=O)COc3ccc(C)cc3)CC2)cc1`, the survival is inactive: 101%.

Regarding `O=C(Nc1ccc(Cl)cc1C(=O)c1ccccc1)c1cc(Cl)cc(Cl)c1`, the survival is inactive: 150%. With `COc1ccc(OC)c(NC(=O)Cn2cc(C(=O)c3ccccc3)c3ccccc32)c1`, the survival is inactive: 59%. Under `COc1ccc(-c2nc(CN3C(=O)CN=C(c4ccccc4)c4cc(Cl)ccc43)c(C)o2)cc1` stands inactive: 68%; under `CCOc1ccc2nc(NC(=O)c3cccn(Cc4ccc(Cl)cc4)c3=O)sc2c1`, inactive: 75%. Under `COc1ccc(OC)c(/C=C2\C(=O)C3CCN2CC3)c1` stands inactive: 74%; under `CN1CCCC1c1ccc(N)nc1` (centres undefined), inactive: 67%. Next, `CCc1ccccc1NC(=O)c1cccn(Cc2ccccc2F)c1=O`: active: 47%; `O=C(Nc1ccc2c(c1)OCCO2)c1cccn(Cc2cccc(F)c2)c1=O`: inactive: 84%.

Values taken from PubChem BioAssay AID463173 (ICCB-Longwood Screening Facility, Harvard Medical School, 2010).
